Changes are numbered by the printed parent chain. Names may count otherwise. Values belong to the binder of their own block, whether it stands above or below them.
Key:
[1] = biological target: T1, IL-10 receptor (IL-10R1 and IL-10R2 receptor chains) on human PBMCs (human, UniProt Q13651 22-578; Q08334 20-325); assay: cell-based or functional assay
T1 sequence (looked up) 1: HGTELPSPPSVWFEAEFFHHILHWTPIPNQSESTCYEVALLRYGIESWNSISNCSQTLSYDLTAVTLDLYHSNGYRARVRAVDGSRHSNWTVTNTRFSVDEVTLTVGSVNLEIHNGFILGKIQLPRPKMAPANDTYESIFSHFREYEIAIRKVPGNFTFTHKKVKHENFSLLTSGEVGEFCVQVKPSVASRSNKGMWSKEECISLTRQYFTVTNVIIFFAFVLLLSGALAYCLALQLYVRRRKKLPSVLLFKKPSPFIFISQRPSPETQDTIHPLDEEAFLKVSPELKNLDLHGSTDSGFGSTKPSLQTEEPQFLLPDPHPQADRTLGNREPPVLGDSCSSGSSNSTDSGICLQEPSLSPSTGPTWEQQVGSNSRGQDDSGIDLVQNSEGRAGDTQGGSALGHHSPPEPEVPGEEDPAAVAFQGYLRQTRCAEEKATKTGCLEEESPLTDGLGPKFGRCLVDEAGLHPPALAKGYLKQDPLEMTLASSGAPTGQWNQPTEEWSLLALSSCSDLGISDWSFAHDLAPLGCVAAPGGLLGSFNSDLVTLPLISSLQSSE
T1 sequence (looked up) 2: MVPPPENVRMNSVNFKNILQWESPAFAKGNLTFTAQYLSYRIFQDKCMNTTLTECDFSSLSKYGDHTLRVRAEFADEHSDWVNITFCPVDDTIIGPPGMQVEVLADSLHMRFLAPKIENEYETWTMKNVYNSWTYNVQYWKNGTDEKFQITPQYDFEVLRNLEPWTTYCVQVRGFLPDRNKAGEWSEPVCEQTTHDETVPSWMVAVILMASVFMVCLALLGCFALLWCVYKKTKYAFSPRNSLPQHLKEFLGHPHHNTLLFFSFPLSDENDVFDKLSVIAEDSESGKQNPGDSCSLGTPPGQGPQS

[2] = biological target: T2, IL-10 receptor (IL-10R1 and IL-10R2 receptor chains) on mouse cells (mouse, UniProt Q61727 17-575; Q61190 20-349); assay: cell-based or functional assay
T2 sequence (looked up) 1: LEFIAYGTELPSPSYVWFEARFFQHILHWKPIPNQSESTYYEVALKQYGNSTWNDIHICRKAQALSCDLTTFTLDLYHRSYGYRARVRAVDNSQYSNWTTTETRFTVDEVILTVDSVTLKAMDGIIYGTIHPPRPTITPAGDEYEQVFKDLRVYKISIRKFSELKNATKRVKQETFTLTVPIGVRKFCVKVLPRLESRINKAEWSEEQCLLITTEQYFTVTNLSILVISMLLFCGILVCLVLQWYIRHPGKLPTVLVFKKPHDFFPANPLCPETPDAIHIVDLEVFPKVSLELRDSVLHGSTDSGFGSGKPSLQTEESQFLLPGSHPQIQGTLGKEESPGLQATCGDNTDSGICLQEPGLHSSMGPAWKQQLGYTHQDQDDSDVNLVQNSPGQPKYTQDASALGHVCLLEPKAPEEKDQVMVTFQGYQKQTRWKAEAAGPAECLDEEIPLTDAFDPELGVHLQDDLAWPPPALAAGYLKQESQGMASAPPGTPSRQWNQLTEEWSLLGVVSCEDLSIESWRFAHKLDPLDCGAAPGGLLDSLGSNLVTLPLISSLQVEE
T2 sequence (looked up) 2: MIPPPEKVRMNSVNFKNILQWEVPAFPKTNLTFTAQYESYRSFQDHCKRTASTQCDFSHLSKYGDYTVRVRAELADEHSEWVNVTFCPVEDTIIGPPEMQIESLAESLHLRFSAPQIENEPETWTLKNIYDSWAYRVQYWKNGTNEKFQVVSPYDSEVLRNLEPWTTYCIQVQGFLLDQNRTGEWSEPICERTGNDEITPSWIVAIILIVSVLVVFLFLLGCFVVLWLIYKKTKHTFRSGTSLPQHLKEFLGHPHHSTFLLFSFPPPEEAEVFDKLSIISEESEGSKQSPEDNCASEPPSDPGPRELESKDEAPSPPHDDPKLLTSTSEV

- EC50 for STAT3 activation (percent pSTAT3+ cells), CD8 Central Memory cells in human PBMCs [1]: 194 pM
- EC50 for STAT3 activation (percent pSTAT3+ cells), CD8 Effector Memory cells in human PBMCs [1]: 165 pM
- EC50 for STAT3 activation (percent pSTAT3+ cells), CD8 Terminal Effector cells in human PBMCs [1]: 158 pM
- EC50 for STAT3 activation (percent pSTAT3+ cells), Monocytes in human PBMCs [1]: 3.36 pM
- EC50, proliferation of mouse mast cell line MC/9 [2]: 60 pM
- IC50, inhibition of TNFα production in LPS-stimulated C57BL/6 mouse PBMCs (PBMC + LPS) [2]: 0.06 pM
B1: Unsubstituted scIL-10 (10 aa linker):CL:CH1:Fc (Fc fusion)
chain: SPGQGTQSENSCTHFPGNLPNMLRDLRDAFSRVKTFFQMKDQLDNLLLKESLLEDFKGYLGCQALSEMIQFYLEEVMPQAENQDPDIKAHVNSLGENLKTLRLRLRRCHRFLPCENKSKAVEQVKNAFNKLQEKGIYKAMSEFDIFINYIEAYMTMKIRNGGSGGGGSGGSPGQGTQSENSCTHFPGNLPNMLRDLRDAFSRVKTFFQMKDQLDNLLLKESLLEDFKGYLGCQALSEMIQFYLEEVMPQAENQDPDIKAHVNSLGENLKTLRLRLRRCHRFLPCENKSKAVEQVKNAFNKLQEKGIYKAMSEFDIFINYIEAYMTMKIRNGGGGSGGGGSRTVAAPSVFIFPPSDEQLKSGTASVVCLLNNFYPREAKVQWKVDNALQSGNSQESVTEQDSKDSTYSLSSTLTLSKADYEKHKVYACEVTHQGLSSPVTKSFNRGECGGGGSGGGGSGGGGSGGGGSASTKGPSVFPLAPSSKSTSGGTAALGCLVKDYFPEPVTVSWNSGALTSGVHTFPAVLQSSGLYSLSSVVTVPSSSLGTQTYICNVNHKPSNTKVDKRV[human IgG1 Fc cut from this listing]

- EC50 for STAT3 activation (percent pSTAT3+ cells), CD8 Central Memory cells in human PBMCs [1]: 2.46 nM
- EC50 for STAT3 activation (percent pSTAT3+ cells), CD8 Effector Memory cells in human PBMCs [1]: 1.9 nM
- EC50 for STAT3 activation (percent pSTAT3+ cells), CD8 Terminal Effector cells in human PBMCs [1]: 1.23 nM
- EC50 for STAT3 activation (percent pSTAT3+ cells), Monocytes in human PBMCs [1]: 12.5 pM
B2: wtIL-10:linker:M22A, D41A (R1 + R2 mutant) (Fc fusion)
chain: B1 chain with M192A, D211A

- EC50 for STAT3 activation (percent pSTAT3+ cells), CD8 Central Memory cells in human PBMCs [1]: 1.12 nM
- EC50 for STAT3 activation (percent pSTAT3+ cells), CD8 Effector Memory cells in human PBMCs [1]: 1.08 nM
- EC50 for STAT3 activation (percent pSTAT3+ cells), CD8 Terminal Effector cells in human PBMCs [1]: 1.07 nM
- EC50 for STAT3 activation (percent pSTAT3+ cells), Monocytes in human PBMCs [1]: 5.09 pM
B3: wtIL-10:linker:D41A (R1 mutant) (Fc fusion)
chain: B1 chain with D211A
